PubChem BioAssay AID624171 (National Center for Advancing Translational Sciences (NCATS), 2012)
“And” between values parts separate entries of the source, which are not always exact repeats. Equal entries are not always repeated. Screen size: about 410,000 compounds; about 1,200 (0.29%) were called active. The shares of active, inactive and inconclusive entries below differ from those in the screen. The call rests on the fitted dose curve; in most records, active means well fitted activation curve with a large enough effect; inconclusive means small, poorly fitted or top-dose-only effect; inactive means flat fitted curve, though single readings scatter. Potencies of inconclusive entries are doubtful fits and often do not repeat.
Potency means the concentration at half of the fitted maximal effect; tags describe the fitted curve by direction and shape.

Assay: qHTS of Nrf2 Activators; further: nearly all actives have a fitted effect of over 65% in size; on activation: % of control where 0% means no effect
Conditions: AREc32 ARE-luciferase reporter (MCF7-derived line), luminescence, 24 h; activation: at 46.1 µM (top of the series)
Description: Many diseases have some form of oxidative stress injury and ties to inflammation, causing a host of problems for the patient. The antioxidant response element (ARE) plays an important role in alleviating the harmful effects of oxidative stress. The antioxidant response element (ARE) is a transcriptional regulatory element involved in the activation of genes coding for a number of antioxidant proteins and detoxifying enzymes. These enzymes work in concert to protect tissues from oxidative insults and chemical toxicities in human hepatocytes and immune cells. The protective effects of ARE activation are primarily triggered through Nrf2 (NF-E2-related factor) binding to and activating AREs. It is known that Nrf2 controls the production of over 250 antioxidant and detoxification proteins (Hu et al., 2006), thereby protecting tissues by increasing cellular antioxidant content and suppressing inflammatory signaling pathways. The transcription factor Nrf2 is a central link between oxidative chemicals, such as phenolic antioxidants and electrophilic compounds, and the activation of ARE. Nrf2 levels are constitutively low as a consequence of its interaction with Keap1, which targets its degradation (Zipper and Mulcahy, 2002). Electrophiles react with key cysteine residues in Keap1, releasing Nrf2 and allowing its translocation to the nucleus. Once within the nucleus, Nrf2 complexes with coactivators such as p300, and binds to the AREs to induce gene transcription of cytoprotective enzymes, resulting in the prevention of toxicity. Activation of Nrf2 protects tissues by increasing cellular antioxidant content and suppressing inflammatory signaling pathways. Identifying novel and potent Nrf2 activators by using the AREc32 cell line to detect ARE activation by small molecules will lead to the identification and development of probes to study protective pathways in multiple tissues. These specific probes are essential to study the ARE pathway, and eventually to determine whether this pathway does activate genes that could protect against a host of diseases, including cardiovascular diseases, obesity, diabetes, Alzheimer's, and Parkinson's disease.
This project's aim is to identify novel and potent Nrf2 activators by using the AREc32 cell line to detect ARE activation by small molecules, which will lead to the identification and development of probes to study the ARE pathway.
NIH Chemical Genomics Center [NCGC]
NIH Molecular Libraries Probe Centers Network [MLPCN]
Assay Submitter (PI): Curtis Klaassen, University of Kansas Medical Center
5 uL of 1000 cells/well of AREc32_Fluc cells are seeded into 1536-well plate in OPTI-MEM medium with 5% FBS. The plates are incubated overnight at 37 deg C with 5% CO2. Then through pin tool transfer, 23 nL of compounds are added to each well before a 24 hr incubation at 37 deg C with 5% CO2. After the addition of 2.5 uL of Steady-Glo. the plates are kept at RT for 30 min, before they are read on the ViewLux.
With Brc1ccc(-c2csc(NNC3=NCCCCC3)n2)cc1 the “activation” value was inactive: 12.2%.
For CCOC(=O)C(C)Sc1nc2c(c(-c3cccs3)c1C#N)CCC2 (configuration not stated), the Potency was inconclusive: 2.82 µM [activator, full curve, poor fit].
For Clc1ccc(-c2nnc(CCc3ccccc3)o2)c(Cl)c1, the “activation” value was inactive: 2.77%.
For N#CC1=C(N)n2c(s/c(=C\c3ccco3)c2=O)=C(C#N)C1c1ccco1 (configuration not stated), the Potency was inconclusive: 2 µM [activator, full curve, poor fit].
In the case of O=C(Nc1ccccc1F)c1cc(Cl)sc1Cl, the Potency is reported as inconclusive: 15.8 µM [activator, partial curve, poor fit].
In the case of COc1cc2c(cc1NC(=O)C(Cl)Cl)-c1ccc(NC(=O)C(Cl)Cl)cc1C2, the Potency is reported as inconclusive: 5.62 µM [activator, single point].
In the case of COc1ccc(-n2ncc(Cl)c(Cl)c2=O)cc1, the Potency is reported as inconclusive: 0.562 µM [activator, full curve, poor fit].
For O=C(C=Cc1ccccc1)c1cccs1, the Potency was inconclusive: 25.1 µM [activator, single point].
For Cc1ccccc1OCC(=O)N/N=C/c1ccc([N+](=O)[O-])o1, the “activation” value was inactive: 14.1%.
With CCCOc1ccc(C(=O)NCCC(=O)NCCCC(=O)O)cc1 the “activation” value was inactive: -0.222%.
In the case of O=C(/C=C/c1cccc([N+](=O)[O-])c1)N1CCOCC1, the Potency is reported as active: 12.6 µM.
For CCOc1ccc(-c2cc(NC(=O)Nc3ccccc3Cl)c(C(=O)OC)s2)cc1, the “activation” value was inactive: 1.3%.
For Cc1ccc(-c2c3c(=O)n(C)c(=O)n(C)c3cn2-n2cnnc2)cc1, the Potency was inconclusive: 17.8 µM [activator, single point].
With COc1ccc(N2CCN(CC(O)COc3ccc4c(c3)CCC4)CC2)cc1 (configuration not stated) the “activation” value was inactive: -0.417%.
In the case of O=C(NC(=S)Nc1ccccc1)c1ccc(Br)o1, the Potency is reported as inconclusive: 12.6 µM [activator, partial curve, poor fit].
For Cc1ccc2cc(/C=C/C(=O)c3ccco3)c(Cl)nc2c1, the Potency was inconclusive: 15.8 µM [activator, partial curve, poor fit].
In the case of O=C(Nc1c(Br)cc2c(c1Br)Cc1ccccc1-2)C(F)(F)F, the Potency is reported as inconclusive: 2.51 µM [activator, full curve, poor fit].
For Cn1cccc1C(=O)OCC(=O)c1ccc(Br)s1, the Potency was inconclusive: 22.4 µM [activator, single point].
With Cn1nc(C(=O)Nc2c(-c3ccccc3)nc3sccn23)c2ccccc2c1=O the Potency was inconclusive: 4.47 µM [activator, partial curve, poor fit].
With O=C(Nc1ccccc1Br)c1cc(=O)c2ccccc2o1 the Potency was inconclusive: 7.94 µM [activator, partial curve, poor fit].
With CCOC(=O)CSc1nc2c(sc(=S)n2-c2ccc(OCC)cc2)c(=O)[nH]1 the “activation” value was inactive: -0.0276%.
In the case of Cc1ccc(-c2nnc(-c3cccc(Br)c3)o2)cc1, the Potency is reported as inconclusive: 2.51 µM [activator, partial curve, poor fit].
In the case of COc1ccc(CNC(=O)c2cc3cccc4c3n2CC(C)S4)cc1 (configuration not stated), the “activation” value is reported as inactive: 1.86%.
In the case of COC(=O)c1sccc1NC(=O)c1ccc(Cl)s1, the Potency is reported as inconclusive: 2.82 µM [activator, partial curve, poor fit].
For COc1ccc(/C=C2\CCc3ccccc3C2=O)cc1CN1CCOCC1, the Potency was inconclusive: 22.4 µM [activator, single point].
With CCOC(=O)CNC(=O)CSc1nc(Cc2ccccc2)nc2ccccc12 the Potency was inconclusive: 31.6 µM [activator, partial curve, poor fit].
With C/[N+]([O-])=C\c1ccc([N+](=O)[O-])o1 the Potency was inconclusive: 17.8 µM [activator, single point].
In the case of O=C(NC(=O)c1ccccc1)Nc1ccc(Cl)cn1, the Potency is reported as inconclusive: 3.98 µM [activator, full curve].
In the case of CC(CNC(=O)Cn1c(-c2cccs2)cc2cc(Cl)ccc21)c1ccccc1 (configuration not stated), the “activation” value is reported as inactive: -0.678%.
With COc1ccc(N(C(=O)CCl)C(C(=O)NCCc2ccccc2)c2cccs2)cc1 (configuration not stated) the Potency was inconclusive: 3.16 µM [activator, single point].
In the case of Cc1ccc(C(=O)Nc2nc(-c3ccco3)c(-c3ccco3)s2)o1, the Potency is reported as active: 1.26 µM.
With CCc1ccc2c(Cl)c(C(=O)N/N=C/c3c[nH]c4ccccc34)sc2c1 the “activation” value was inactive: 4.49%.
With [O-][n+]1onc2c1CCc1nnc(-c3ccccc3)cc1-2 the Potency was inconclusive: 1.78 µM [activator, full curve, poor fit].
For COc1cccc(CNC(=O)CCn2c(=O)c3cccn3c3cccnc32)c1, the Potency was inconclusive: 15.8 µM [activator, single point] and inconclusive: 17.8 µM [activator, single point].
With O=c1[nH]ncc(N/N=C\c2ccncc2)c1Cl the “activation” value was inactive: 5.88%.
With Cc1c(-c2nc3ccccc3[nH]2)cnn1C the “activation” value was inactive: 1.04%.
For Cc1ccc(Nc2nc(C(N)=O)c(NC(=O)c3ccccc3Br)s2)cc1, the Potency was inconclusive: 5.01 µM [activator, full curve].
With C=CCn1c(O)c(N=Nc2ccccc2O)c2ccccc21 the Potency was inconclusive: 10 µM [activator, partial curve, poor fit].
In the case of O=C(CNS(=O)(=O)c1ccccc1)Nc1cccc([N+](=O)[O-])c1, the Potency is reported as inconclusive: 20 µM [activator, single point].
In the case of O=C(NCC1CCN(Cc2ccccc2Cl)CC1)c1cc2ccc3cccnc3c2[nH]1, the “activation” value is reported as inactive: 12.1%.
For Nc1ccc2cccc(O)c2c1, the Potency was inconclusive: 22.4 µM [activator, single point].
With Fc1cccc(Cl)c1C1Nc2cccc3cccc(c23)N1 the Potency was inconclusive: 31.6 µM [activator, single point].
In the case of COc1ccc(-c2c(NC(=O)c3ccco3)oc3c(C)cccc3c2=O)cc1OC, the Potency is reported as inconclusive: 15.8 µM [activator, single point].
For COC(=O)c1ccc2nc(-c3ccco3)c(Cc3cccc(F)c3)n2c1, the Potency was active: 11.2 µM.
For O=C1/C(=C/c2ccc(Cl)cc2)SC(=S)N1CCC(=O)N1CCCCC1CCO (configuration not stated), the Potency was inconclusive: 10 µM [activator, partial curve, poor fit].
For CCOC(=O)C(=Cc1ccc(N(C)C)cc1)C(=O)c1ccccc1, the Potency was inconclusive: 31.6 µM [activator, single point].
In the case of O=S(=O)(CCS(=O)(=O)c1ccccc1)c1ccccc1, the Potency is reported as inconclusive: 20 µM [activator, partial curve, poor fit].
In the case of COc1cc(NC(=O)C/C(C)=N/NC(=O)c2cccs2)c(OC)cc1Cl, the Potency is reported as inconclusive: 14.1 µM [activator, single point].
For O=C(NC1CCCCC1)C(c1cccnc1)N(C(=O)CCl)c1ccccc1Cl (configuration not stated), the Potency was inconclusive: 12.6 µM [activator, single point].
In the case of O=C(N/N=C/c1cccc(F)c1)c1c(O)c2ccccc2[nH]c1=O, the Potency is reported as inconclusive: 14.1 µM [activator, partial curve, poor fit].
For Cc1ccc(N2Cc3ccccc3C2=O)cc1, the “activation” value was inactive: 3.03%.
For O=C1c2cccc3cccc(c23)C(=O)C1(O)O, the Potency was inconclusive: 12.6 µM [activator, single point].
In the case of O=C(O)c1ccc(C=C(c2nc3ccccc3s2)c2nc3ccccc3s2)cc1, the Potency is reported as inconclusive: 20 µM [activator, single point].
For CC(=O)Nc1ccc(NC(=O)Nc2ccc3c(c2)N(C)C(=O)CS3)cc1, the “activation” value was inactive: 0.295%.
In the case of CC(=O)Nc1ccccc1OCc1nnc(-c2cccs2)o1, the Potency is reported as inconclusive: 15.8 µM [activator, single point].
For O=c1oc2ccc(Cl)cc2nc1/C=C(\O)c1ccco1, the Potency was inconclusive: 10 µM [activator, partial curve, poor fit].
For N#C/C(=C/c1ccc(N2CCCCC2)o1)c1cccc(F)c1, the Potency was active: 14.1 µM.
For Fc1ccc(-n2nnc(-c3ccnc4ccccc34)n2)cc1, the Potency was inconclusive: 2.51 µM [activator, full curve, poor fit].
In the case of CCOc1ccc(NC(=O)C(c2ccccn2)N(C(=O)CCl)c2ccc(OC)cc2)cc1 (configuration not stated), the Potency is reported as inconclusive: 22.4 µM [activator, single point].
With Cc1cccc(CN2CCN(C(=O)CCl)CC2)c1 the Potency was inconclusive: 31.6 µM [activator, single point].
With COc1cccc(/C=N/NC(=O)CSc2cccc3cccnc23)c1 the Potency was inconclusive: 22.4 µM [activator, single point].
In the case of COc1ccc(Br)cc1CNC(=O)c1cnc2sc(N3CCCCCC3)nn2c1=O, the “activation” value is reported as inactive: 0.634%.
In the case of CCN(CC)CCNC(=O)c1ccc(NC(=O)COc2ccc3c(c2)CCC3)cc1, the “activation” value is reported as inactive: 0.146%.
For O=C(O)CC1CCC(=C(Cl)Cl)C1 (configuration not stated), the Potency was inconclusive: 28.2 µM [activator, single point].
For CCN(CC)S(=O)(=O)c1cccc(-c2nnc(SCC(N)=O)n2C)c1, the “activation” value was inactive: -0.562%.
With c1ccc(C(c2ccccc2)c2noc(CN3CCN(CC4CC4)CC3)n2)cc1 the “activation” value was inactive: -0.0555%.
For CCN(CC)CCSc1nnc2c3cc(C)ccc3n(Cc3ccccc3)c2n1, the “activation” value was inactive: 7.47%.
With COc1ccc(CNc2n[nH]c(-c3ccco3)n2)cc1OC the “activation” value was inactive: -0.703%.
For c1ccc(N/N=C2\CCCc3ccccc32)nc1, the Potency was inconclusive: 10 µM [activator, partial curve, poor fit].
For C[C@@H]1C[C@@H]2OC(=O)[C@]3(C)[C@H]2[C@@H](OC3(C)O)[C@]2(C)C(=O)C=C[C@H]12 (some centres not stated), the Potency was active: 14.1 µM.
In the case of O=c1oc2ccccc2c(Nc2ccccc2O)c1[N+](=O)[O-], the Potency is reported as inconclusive: 22.4 µM [activator, single point].
With Cc1nc(S(=O)(=O)N(C)c2ccccc2)c(C#N)c(C)c1Cl the Potency was inconclusive: 3.16 µM [activator, single point].
